# Measured values published in patent US7271245B2, “Methods and compositions for inhibition of metastasis” (The Scripps Research Institute, priority 2004, dated 2007).
# System: BMS human breast cancer cells
# Assay: Tumor cell adhesion under stationary conditions
# Type: cell-based
# Settings: 3 μM scFv
# Protocol: FIGS. 3A, 3B, 3C, 3D, 3E. scFv Bc-12 and Bc-15 inhibit αvβ3 mediated adhesive breast cancer cell functions. (A) Adhesion of BMS human breast cancer cells to fibrinogen (Fg), vitronectin (VN) or type I collagen (Col I) in the absence or presence of 3 μM Bc-12, Bc-15 or their RGE mutants Mut-12, Mut-15, compared to 200 μM GRGDSPK peptide (SEQ ID NO: 11). Protein coating concentrations: 10 μg/ml (VN, Col I) or 20 μg/ml (Fg). Adhesion time: 30 min at 37° C. (B) Effect of scFvs on haptotactic BMS cell migration toward a fibrinogen substrate (16 hrs at 37° C. in transwell chambers with or without 2 μM Bc-12, Bc-15 or their RGE mutants Mut-12 or Mut-15, compared to 200 μM GRGDSPK peptide) (SEQ ID NO: 11). (C) Effect of scFvs on breast cancer cell arrest during blood flow. Metastatic BMS cells, labeled with hydroethidine, were suspended in human blood (anticoagulated with 50 nM PPACK) and perfused over a collagen I matrix at a venous wall shear rate of 50 s^−1. Under these conditions, breast cancer cells arrest by αvβ3 mediated binding to adherent, thrombus forming platelets. Tumor cell adhesion was quantified by image acquisition at 30 predefined positions during blood flow. Left: representative images of platelet signal (thrombi, green fluorescence) and tumor cell signal (red fluorescence) at identical x,y positions. Right: Number of arrested tumor cells in the presence of 3 μM non-function blocking anti αv scFv Bc-20 or function blocking anti αvβ3 scFvs Bc-12 or Bc-15. (D) scFv Bc-15 is internalized by human breast cancer cells and reduces cell proliferation. Left: confocal images of BMS cells incubated for 4 hrs with FITC-Bc-15 at 4° C. (binding) versus 37° C. (allowing internalization). Right: Phase contrast images of BMS cell cultures 4 days after seeding in the presence of 2 μM RGE containing scFv Mut-15, or RGD containing Bc-15. […]
# Cell adhesion and migration. Tumor cell adhesion under stationary conditions was analyzed as detailed earlier (19). […] Haptotactic tumor cell migration toward fibrinogen was analyzed in transwell chambers as detailed earlier. […]
molecule,measurement,setting,value
Bc-15: patient derived human scFv antibody against activated αvβ3 with RGD motif in CDR-H3; cDNA ATCC PTA-6304 (protein) scFv: MAQVQLVQSGAEVKEPGSSVKVSCKASGGTFSSYAIYWVRQAPGQGLEWMGWINPDSGDTNSAQQFQGRVTMTRDTSISTAYMELSRLRSDDTAMYYCARPPRGDGPDYWGQGTLVTVSSGGGGGS[letters of about 100 residues not shown]RGLGGLVDYKDDDDK,adhesion to collagen type I,,no effect
same,attachment to vitronectin,,"inhibited by Bc-12 and Bc-15, but to a lesser degree"
same,adhesion to immobilized fibrinogen,30 min at 37° C.,efficiently inhibited
